34 compounds from PubChem BioAssay AID1745853 (National Center for Advancing Translational Sciences (NCATS), 2022) can be followed below.

Common to all, as to assay: Primary Screen for Target Class Profiling of Small Molecule Inhibitors of Methyltransferases
For test [1], the target named is Glycine N-methyltransferase (Homo sapiens) (UniProt Q14749). The note with it: purified enzyme, MTase-Glo SAH luminescence; measured here: GNMT inhibition; at 40 µM; stronger effect = lower value. A digest of the protocol: (§1)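 Each enzyme was reacted with SAM and its substrate, with compounds tested once at 40 uM; SAH formed was read by MTase-Glo luminescence.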
Test [2] addresses Guanidinoacetate N-methyltransferase (Homo sapiens) (UniProt Q14353). The note with it: purified enzyme, MTase-Glo SAH luminescence; measured here: GAMT inhibition; at 40 µM; stronger effect = lower value. The method in brief:
as §1

The target in test [3] is Histamine N-methyltransferase (Homo sapiens) (UniProt P50135). The conditions noted are these: purified enzyme, MTase-Glo SAH luminescence; measured here: HNMT inhibition; at 40 µM; stronger effect = lower value. A digest of the protocol: as §1
Test [4] concerns the target Nicotinamide N-methyltransferase (Homo sapiens) (UniProt P40261). The conditions noted are these: purified enzyme, MTase-Glo SAH luminescence; measured here: NNMT inhibition; at 40 µM; stronger effect = lower value. The method in brief: as §1
In test [5] the target is Phenylethanolamine N-methyltransferase (Homo sapiens) (UniProt P11086). The conditions noted are these: purified enzyme, MTase-Glo SAH luminescence; measured here: PNMT inhibition; at 40 µM; stronger effect = lower value. A digest of the protocol:
as §1

Values joined by “and” are separate entries in the source; they are usually repeats but may differ in a detail not shown here. Identical values can stand only once. The list shows a part of the results. Further columns of the screen follow, without active or inactive calls. Bridge positions count the residues as written; N and C are the ends. Square brackets hold non-standard residues; d marks the D form. Peptide text beside a SMILES is read from it. * marks the point of attachment. X1 = CCC(C)C(N)C1=NC(C(=O)*)CS1; dOrn = NCCC[C@@H](N)C(=O)O
% is scaled to controls: 0 for no effect and ±100 for the full control effect.

As for `C=CC1C(O[C@@H]2O[C@H](CO)[C@@H](O)[C@H](O)[C@H]2O)OC=C(C(=O)OC)C1Cc1nccc2c1[nH]c1ccccc12` (stereo not given in full), the activity change, negative = inhibition in test [1] is 1.68%; in test [2] it was 2.69%; in test [3], 11.8%; in test [4] it was -8.27%; in test [5], 6.08%.

Turning to `O=C1CCC2(CCN1)CCN(S(=O)(=O)c1cccnc1)CC2`, the activity change, negative = inhibition in test [1] was 0.516%; in test [2], 1.28%; in test [3], 2.66%; in test [4] it was 0.155%; in test [5] it was 0.769%.

As for `COc1ccc(CNc2nc(N(CCO)CCO)nc3c2ncn3C(C)C)cc1`, the activity change, negative = inhibition was -12.1% in test [1]; -6.84% in test [2]; 1.25% in test [3]; -21.4% in test [4]; -2.41% in test [5].

Regarding `CC(C)c1cc2n(n1)CC(C)(C(=O)NC1CCCCCC1)N(Cc1cccc(Cl)c1)C2=O` (stereo not given), the activity change, negative = inhibition in test [1] is 4.54%; in test [2] it was 1.87%; in test [3], 7.88%; in test [4], 3.62%; in test [5], 2.66%.

Take `CCNC(=O)C(CC)n1ccc2cc(S(=O)(=O)N3CCCCC3)ccc21` (stereo not given): the activity change, negative = inhibition came out at 5.58% in test [1]; 2.67% in test [2]; 1.43% in test [3]; 7.61% in test [4]; 4.06% in test [5].

For the compound `O=C(NC[C@H]1OC[C@@H](NCc2ccccc2O)[C@@H]1O)c1ccc(F)cc1`, the activity change, negative = inhibition is -1.1% in test [1]; -1.73% in test [2]; 1.08% in test [3]; -2.82% in test [4]; 5.18% in test [5].

As for `O=C(OCC12OC1C=CC(OC(=O)c1ccccc1)C2O)c1ccccc1` (stereo not given), the activity change, negative = inhibition was -6.28% in test [1]; -4.31% in test [2]; 4.04% in test [3]; -15.6% in test [4]; -6.96% in test [5].

Regarding `Cc1ccc(NC(=O)Cn2c(=O)oc3cc(S(=O)(=O)N4CC(C)CC(C)C4)ccc32)cc1C` (stereo not given), the activity change, negative = inhibition in test [1] was -5.61%; in test [2], -0.591%; in test [3], -3.52%; in test [4], -6.88%; in test [5] it was -24.4%.

`CC(C)CN(Cc1cccnc1)C1CN(S(=O)(=O)Cc2ccccc2F)C1`: the activity change, negative = inhibition was -2.72% in test [1]; 1.41% in test [2]; 2.48% in test [3]; -5.56% in test [4]; -1.45% in test [5].

On to `CC(C)c1ccccc1OC(=O)NCCc1ccc2ccccc2c1`, for which the activity change, negative = inhibition in test [1] is -0.408%; in test [2], -14.1%; in test [3], 4.36%; in test [4] it was -17.3%; in test [5], -5.08%.

As to `O=C(CCc1nnc2n(Cc3ccc(Cl)cc3)c(=O)c3ccccc3n12)N1CCC(N2CCCCC2)CC1`, the activity change, negative = inhibition in test [1] is -16.9%; in test [2], 2.04%; in test [3] it was -77.3%; in test [4], -3.04%; in test [5], -9.14%.

In the case of `O=C1NC(=NC2CCCCC2)C2(CCN(CC3CCCCC3)CC2)N1c1cc(F)cc(F)c1`, the activity change, negative = inhibition in test [1] was -2.53%; in test [2], -1.73%; in test [3], 0.703%; in test [4] it was -2.57%; in test [5], -9.21%.

With `CC1=CC(=O)[C@@]2(C(C)C)C[C@@H]12`, the activity change, negative = inhibition is -14.5% in test [1]; -32.9% in test [2]; -17.3% in test [3]; -60.4% in test [4]; -21.7% in test [5].

In the case of `Cc1ccc(NC(=O)Cn2nc3n(CCC(C)C)c(=O)c4ccccc4n3c2=O)c(C)c1`, the activity change, negative = inhibition in test [1] was 6.21%; in test [2] it was 5.37%; in test [3], 9.6%; in test [4], 4.32%; in test [5], -1.88%.

As for `COC(=O)c1ncn2c1C(=O)N(c1ccc(OC)c(OC)c1)C(C)(C(=O)NCc1ccccc1)C2` (stereo not given), the activity change, negative = inhibition in test [1] is 2.48%; in test [2] it was 0%; in test [3], 8.52%; in test [4] it was 2.79%; in test [5], 2.53%.

For `COCCN1C(=O)c2cc(-c3ccc(OC)cc3)nn2CC1(C)C(=O)NCc1ccccc1OC` (stereo not given), the activity change, negative = inhibition was -0.374% in test [1]; 5.77% in test [2]; 1.17% in test [3]; -7.13% in test [4]; -4.63% in test [5].

Consider `CC(C)(C)NCC(O)c1ccc(O)c(CO)c1` (stereo not given), for which the activity change, negative = inhibition in test [1] was -0.827%; in test [2] it was 9.3%; in test [3], 2.84%; in test [4], 0.362%; in test [5], 9.38%.

For the compound `Cc1sc2c(c1C)C(c1ccc(Cl)cc1)=N[C@@H](CC(=O)Nc1ccc(OCCOCCOCCOCCNc3cccc4c3C(=O)N(C3CCC(=O)NC3=O)C4=O)cc1)c1nnc(C)n1-2` (stereo not given in full), the activity change, negative = inhibition was 4.19% in test [1]; 2.02% in test [2]; 1.89% in test [3]; -40.1% in test [4]; -2.76% in test [5].

As for `COC(=O)c1ncn2c1C(=O)N(CCc1ccccc1)C(C)(C(=O)NC1CCCC1)C2` (stereo not given), the activity change, negative = inhibition in test [1] was -0.723%; in test [2], 0.239%; in test [3], -1.49%; in test [4], -1.88%; in test [5], -2.22%.

In the case of `CCC(C)C(N)C1=NC(C(=O)N[C@@H](CC(C)C)C(=O)N[C@H](CCC(=O)O)C(=O)N[C@H](C(=O)N[C@H]2CCCCNC(=O)[C@H](CC(N)=O)NC(=O)[C@@H](CC(=O)O)NC(=O)[C@H](Cc3cnc[nH]3)NC(=O)[C@@H](Cc3ccccc3)NC(=O)[C@H]([C@@H](C)CC)NC(=O)[C@@H](CCCN)NC2=O)[C@@H](C)CC)CS1` (stereo not given in full) (X1-L[dE]IK[dOrn]I[dF]H[dD]N; lactam 4-C), the activity change, negative = inhibition was 1.42% and 3.28% in test [1]; 11.6% and 26% in test [2]; 7.24% and 14% in test [3]; 1.84% and 11.9% in test [4]; 9% and 8.94% in test [5].

Consider `COC1CC(O[C@H]2CC[C@]3(C)C4CC[C@@]5(C)C(=O)[C@]4(CC[C@@H]3C2)CC[C@@H]5C2=CC(=O)OC2)OC(C)C1OC1OC(COC2OC(CO)C(O)C(O)C2O)C(O)C(O)C1O` (stereo not given in full), for which the activity change, negative = inhibition was 3.28% in test [1]; 7.4% in test [2]; 7.08% in test [3]; -4.36% in test [4]; 6.57% in test [5].

Take `O=C(N1CCOCC1)N1C2CCC1CN(c1ccc(C(F)(F)F)cc1)C2`: the activity change, negative = inhibition in test [1] was -8.41%; in test [2], -6.65%; in test [3], -4.12%; in test [4], -15%; in test [5], -10.8%.

Consider `O=C(O)C[C@H]1CCC(=O)[C@@H]1C/C=C\CCOC1OC(CO)C(O)C(O)C1O` (stereo not given in full), for which the activity change, negative = inhibition in test [1] was 0%; in test [2], 7.26%; in test [3], 9.46%; in test [4] it was -5.53%; in test [5], 2.53%.

Consider `O=C(Cc1ccc(C(F)(F)F)cc1)N1CC(COc2ccccc2)C2(C1)CN(C(=O)c1cn[nH]c1)C2` (stereo not given), for which the activity change, negative = inhibition in test [1] is -13.7%; in test [2] it was -12.6%; in test [3] it was -7.39%; in test [4], -26.6%; in test [5], -17.5%.

Consider `CCOc1ccc(CCNc2nc3c(S(=O)(=O)c4ccccc4)nnn3c3ccccc23)cc1OCC`, for which the activity change, negative = inhibition is -3.3% in test [1]; 0% in test [2]; -0.236% in test [3]; -3.31% in test [4]; -1.66% in test [5].

Consider `Fc1ccc(-c2cncc(CN3CCN(c4cccc5c4OCCO5)CC3)c2)cc1`, for which the activity change, negative = inhibition in test [1] is -5.03%; in test [2], 2.08%; in test [3] it was 5.13%; in test [4], -21.5%; in test [5] it was -5.66%.

Regarding `COC(=O)/C=C/C12COC(C)(C)C1C(O)C(OC(C)=O)C1(C)C2CCC2(C)C(c3ccoc3)OC(=O)C3OC321` (stereo not given), the activity change, negative = inhibition in test [1] is -7.62%; in test [2], 5.75%; in test [3], -2.75%; in test [4], -10.7%; in test [5] it was 2.91%.

Turning to `CCOc1ccc(CN2C(=O)c3cc(-c4ccc(OC)cc4)nn3CC2(C)C(=O)NCc2ccccc2)cc1` (stereo not given), the activity change, negative = inhibition is 5.92% in test [1]; 3.37% in test [2]; 8.99% in test [3]; 7.95% in test [4]; 3.77% in test [5].

`CC(C)c1ccc(N2C(=O)c3cc(-c4ccccc4)nn3CC2(C)C(=O)NCc2ccccc2)cc1` (stereo not given): the activity change, negative = inhibition is 3.91% in test [1]; 0.054% in test [2]; 3.77% in test [3]; 1.31% in test [4]; -1.22% in test [5].

Take `CC(C)Cn1c(=O)c2ccccc2n2c(=O)n(Cc3ccc(F)cc3)nc12`: the activity change, negative = inhibition was 5.31% in test [1]; 1.57% in test [2]; 10.7% in test [3]; -5.48% in test [4]; 5.75% in test [5].

For the compound `COc1ccc(CCNC(=O)CCc2nnc3n(CCc4ccccc4)c(=O)c4ccccc4n23)cc1OC`, the activity change, negative = inhibition in test [1] was -1.81%; in test [2], 1.11%; in test [3], 0.479%; in test [4] it was 3.18%; in test [5] it was -4.22%.

With `CC/C=C/CC1=C(CCCCCCCC(=O)O)CCC1=O`, the activity change, negative = inhibition in test [1] is 0.198%; in test [2], -4.18%; in test [3], 8.28%; in test [4], -16.3%; in test [5], 2.98%.

`CC(=O)NC[C@H]1CCN(Cc2ccc(Cl)cc2F)C[C@H]1N(C)C`: the activity change, negative = inhibition in test [1] was -0.952%; in test [2] it was 0.085%; in test [3], 1%; in test [4] it was 0.053%; in test [5], -4.01%.

Take `CO[C@H]1C[C@@H]2CC[C@@H](C)[C@@](O)(O2)C(=O)C(=O)N2CCCC[C@H]2C(=O)O[C@H]([C@H](C)C[C@@H]2CC[C@@H](OP(C)(C)=O)[C@H](OC)C2)CC(=O)[C@H](C)/C=C(\C)[C@@H](O)[C@@H](OC)C(=O)[C@H](C)C[C@H](C)/C=C/C=C/C=C/1C`: the activity change, negative = inhibition was -5.11% in test [1]; 13.3% in test [2]; -6.33% in test [3]; -4.83% in test [4]; 4.35% in test [5].
